# From PubChem BioAssay (Tox21)
# Several values for one entry are separate records, joined by “and”; a condition that tells them apart may be missing. Equal entries are not always repeated. Inconclusive means that the source gave no clear call. Such entries were picked first, then a sample of the others. For some assays here: Potencies of inconclusive entries are doubtful fits and often do not repeat. Activity calls are given as the source filed them. Unless noted, calls come from the whole dose curve; as a rule, active = well fitted curve in the direction sought with a large enough effect in the repeat runs; inconclusive = weak or mixed curves; inactive = no such curve, though single readings can be large; an effect the other way counts as inactive or inconclusive.
# Experiments:
# [1] = target: Peroxisome proliferator-activated receptor gamma (Homo sapiens) (UniProt P37231); experiment: qHTS assay to identify small molecule antagonists of the peroxisome proliferator-activated receptor gamma (PPARg) signaling pathway (AID 743191; calls by dose curve; note: nearly all actives have a fitted effect of over 30% in size; note: potency is the fitted concentration of half-maximal effect; for ratio activity, negative = inhibition: % is set by controls: 0 for no effect and ±100 for the full control effect); conditions: HEK293H PPARg-UAS-bla, beta-lactamase ratio, antagonist, 17 h; ratio activity, negative = inhibition: at 62.6 µM (top of the series) unless noted
# Outline: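 GeneBLAzer PPARg UAS-bla HEK293H cells carrying a UAS-driven beta-lactamase reporter were plated at 3000 cells/well, preincubated 5 h at 37C, then given compound for 17 h at 37C; LiveBLAzer B/G FRET substrate was read after 1 h at room temperature.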
# [2] = qHTS assay for small molecule agonists of the antioxidant response element (ARE) signaling pathway (AID 743202; active = well fitted activation curve with a large enough effect in the signal ratio in the repeat runs, not every such curve was filed as active; inconclusive = weak or mixed curves, or effect the other way; inactive = no such curve, though single readings can be large or run the other way; the % refers to the signal ratio; note: potency is the fitted concentration of half-maximal effect; for activation: % is set by controls: 0 for no effect and ±100 for the full control effect); conditions: HepG2 ARE-bla reporter, beta-lactamase FRET, 16 h; activation: at 73.3 µM (top of the series) unless noted
# Outline: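 Read-out: LiveBLAzer B/G FRET substrate fluorescence after 2 h at room temperature, following 16 h compound treatment at 37 C of HepG2 cells carrying an ARE-driven beta-lactamase reporter.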
# [3] = qHTS assay for small molecule agonists of the antioxidant response element (ARE) signaling pathway - cell viability counter screen (AID 743203; calls by dose curve; note: potency is the fitted concentration of half-maximal effect; nearly all actives have a fitted effect of over 55% in size)
# Outline: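 ARE-bla HepG2 cells were plated, rested 5 h at 37C/5% CO2, then exposed to compounds in DMSO for 16 h. Viability was read as CellTiter-Glo luminescence after 30 min at room temperature, in the same wells as the ARE screen.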
# [4] = qHTS assay for small molecule activators of the heat shock response signaling pathway - cell viability counter screen (AID 743209); conditions: HSE-bla HeLa viability, CellTiter-Glo luminescence, 5 h; activity change, negative = cytotoxicity: at 62.6 µM (top of the series) unless noted; note: nearly all actives have a fitted effect of over 50% in size; note: potency is the fitted concentration of half-maximal effect
# Outline: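 HSE-bla HeLa cells plated overnight, then exposed to Tox21 compounds (23 nL in DMSO) for 5 h at 37 C. After the bla reporter read, CellTiter-Glo was added in the same wells and luminescence read after 30 min at room temperature.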
# [5] = qHTS assay to identify small molecule antagonists of the peroxisome proliferator-activated receptor delta (PPARd) signaling pathway - cell viability counter screen (AID 743213); conditions: PPARd-bla HEK293H viability, CellTiter-Glo luminescence, 17 h; viability change, negative = cytotoxic: at 62 µM (top of the series) unless noted; note: nearly all actives have a fitted effect of over 50% in size; note: potency is the fitted concentration of half-maximal effect
# Outline: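 Luminescence from CellTiter-Glo, added after the bla read and incubated 30 min at room temperature, gives viability of HEK293H PPARd-bla cells exposed to compounds for 17 h at 37 C with 300 nM L165041.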
# [6] = target: Vitamin D3 receptor (Homo sapiens) (UniProt P11473); experiment: qHTS assay to identify small molecule antagonists of the vitamin D receptor (VDR) signaling pathway (AID 743223; active = well fitted inhibition curve with a large enough effect in the signal ratio in the repeat runs, not every such curve was filed as active; inconclusive = weak or mixed curves, or effect the other way; inactive = no such curve, though single readings can be large or run the other way; the % refers to the signal ratio; note: potency is the fitted concentration of half-maximal effect); conditions: VDR-UAS-bla HEK293T, beta-lactamase FRET ratio, 16 h; activity change, negative = inhibition: at 61 µM (top of the series) unless noted
# Outline: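 Beta-lactamase reporter read-out: FRET substrate fluorescence after 2 h at room temperature, following 16 h exposure of VDR-bla cells to test compound plus 3 nM (final) 1alpha,25-dihydroxyvitamin D3 agonist at 37C.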
# [7] = qHTS assay to identify small molecule agonists of the endoplasmic reticulum stress response signaling pathway (AID 1159516; active = well fitted activation curve with a large enough effect in the signal ratio in the repeat runs, not every such curve was filed as active; inconclusive = weak or mixed curves, or effect the other way; the % refers to the signal ratio; note: potency is the fitted concentration of half-maximal effect; for activation: % is set by controls: 0 for no effect and ±100 for the full control effect); conditions: ESRE-bla HeLa, ER stress beta-lactamase reporter, 5 h; activation: at 61 µM (top of the series) unless noted
# Outline: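 CellSensor ESRE-bla HeLa cells, 1,500 per well, plated overnight, then exposed to compounds for 5 hr at 37 C. Beta-lactamase reporter read with LiveBLAzer B/G FRET substrate after 2 hr at room temperature, 405 nm excitation, 460 and 530 nm emission.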
# [8] = qHTS assay for small molecule activators of the heat shock response signaling pathway (AID 743210; active = well fitted activation curve with a large enough effect in the signal ratio in the repeat runs, with a control signal flat, not every such curve was filed as active; inconclusive = weak or mixed curves; the % refers to the signal ratio; note: potency is the fitted concentration of half-maximal effect); conditions: HeLa HSE-bla reporter, beta-lactamase ratio, 5 h; activation: at 62.6 µM (top of the series)
# Outline: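 HSE-bla HeLa cells (beta-lactamase reporter under heat shock response elements) were exposed to compounds for 5 h at 37 C, then loaded with LiveBLAzer B/G FRET substrate for 2.5 h at room temperature before fluorescence reading.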
# [9] = target: Peroxisome proliferator-activated receptor delta (Homo sapiens) (UniProt Q03181); experiment: qHTS assay to identify small molecule agonists of the peroxisome proliferator-activated receptor delta (PPARd) signaling pathway (AID 743212; calls by dose curve; note: potency is the fitted concentration of half-maximal effect); conditions: HEK293H PPARd-UAS-bla, beta-lactamase FRET ratio, 17 h; activation: at 62.6 µM (top of the series) unless noted
# Outline: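 GeneBLAzer PPARd UAS-bla HEK293H cells (beta-lactamase reporter under UAS control), plated and rested 5 h at 37 C, then exposed to compounds in DMSO at 37 C; LiveBLAzer B/G FRET substrate added, 2 h room temperature, fluorescence read.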
# [10] = target: Peroxisome proliferator-activated receptor delta (Homo sapiens) (UniProt Q03181); experiment: qHTS assay to identify small molecule antagonists of the peroxisome proliferator-activated receptor delta (PPARd) signaling pathway (AID 743215; active = well fitted inhibition curve with a large enough effect in the signal ratio in the repeat runs, not every such curve was filed as active; inconclusive = weak or mixed curves, or effect the other way; inactive = no such curve, though single readings can be large or run the other way; the % refers to the signal ratio;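 note: cells stimulated with agonist L165041 at 300 nM final during compound exposure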; note: potency is the fitted concentration of half-maximal effect; for ratio activity, negative = inhibition: % is set by controls: 0 for no effect and ±100 for the full control effect); conditions: HEK293H PPARd-UAS-bla, beta-lactamase FRET ratio, antagonist, 17 h; ratio activity, negative = inhibition: at 62 µM (top of the series) unless noted
# Outline: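 PPARd-bla HEK293H cells (UAS-bla reporter) preincubated 5 h, then given compound plus 300 nM final L165041 agonist for 17 h at 37 C. Beta-lactamase activity read by LiveBLAzer B/G FRET substrate fluorescence after 2 h at room temperature.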
# [11] = qHTS assay to identify small molecule agonists of the farnesoid-X-receptor (FXR) signaling pathway - cell viability counter screen (AID 743218); conditions: FXR-bla HEK293T viability, CellTiter-Glo luminescence, 16 h; viability change, negative = cytotoxic: at 62.6 µM (top of the series) unless noted; note: potency is the fitted concentration of half-maximal effect; nearly all actives have a fitted effect of over 45% in size
# Outline: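 FXR-UAS-bla HEK 293T cells exposed to compounds for 16 h at 37C. Cytotoxicity read in the same wells by CellTiter-Glo luminescence after 30 min at room temperature, following the beta-lactamase FRET read.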
# [12] = target: Bile acid receptor (Homo sapiens) (UniProt Q96RI1); experiment: qHTS assay to identify small molecule agonists of the farnesoid-X-receptor (FXR) signaling pathway (AID 743220; active = well fitted activation curve with a large enough effect in the signal ratio in the repeat runs, not every such curve was filed as active; inconclusive = weak or mixed curves, or effect the other way; the % refers to the signal ratio; note: potency is the fitted concentration of half-maximal effect); conditions: HEK293T FXR-UAS-bla, beta-lactamase FRET ratio, 16 h; activation: at 62.6 µM (top of the series) unless noted
# Outline: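 Beta-lactamase reporter under UAS control in GeneBLAzer FXR HEK 293T cells (5000/well) measured with LiveBLAzer FRET substrate after 2 h at room temperature. Compound exposure lasted 16 h at 37C.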
# [13] = qHTS assay to identify small molecule antagonists of the farnesoid-X-receptor (FXR) signaling pathway - cell viability counter screen (AID 743221; active = well fitted cell-killing curve with a large enough effect in the repeat runs, not every such curve was filed as active; inconclusive = weak or mixed curves, or effect the other way; inactive = no such curve, though single readings can be large or run the other way; note: nearly all actives have a fitted effect of over 50% in size; note: potency is the fitted concentration of half-maximal effect); conditions: FXR-bla HEK293T viability, CellTiter-Glo luminescence, 16 h; activity change, negative = cytotoxicity: at 62.6 µM (top of the series) unless noted
# Outline: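 HEK 293T FXR-bla cells, 5 h pre-incubation; compound + CDCA 50 uM final, 16 h, 37 C; beta-lactamase FRET read first, then CellTiter-Glo luminescence, 30 min RT.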
# [14] = target: Vitamin D3 receptor (Homo sapiens) (UniProt P11473); experiment: qHTS assay to identify small molecule agonists of the vitamin D receptor (VDR) signaling pathway (AID 743222; calls by dose curve; note: potency is the fitted concentration of half-maximal effect); conditions: HEK293T VDR-UAS-bla, beta-lactamase FRET ratio, 16 h; activation: at 63.5 µM (top of the series) unless noted
# Outline: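 VDR-bla cells plated 4 h at 37 C, then exposed to compounds for 16 h at 37 C. Beta-lactamase reporter activity measured by fluorescence after 2 h room-temperature loading with LiveBLAzer B/G FRET substrate.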
# [15] = qHTS assay to identify small molecule agonists of the vitamin D receptor (VDR) signaling pathway - cell viability counter screen (AID 743224); note: nearly all actives have a fitted effect of over 50% in size; note: potency is the fitted concentration of half-maximal effect
# Outline: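 VDR-bla cells, 4 h after plating, exposed to compounds for 16 h at 37C; viability then read in the same wells as CellTiter-Glo luminescence after 30 min at room temperature, following the bla FRET read.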
# [16] = qHTS assay to identify small molecule antagonists of the vitamin D receptor (VDR) signaling pathway - cell viability counter screen (AID 743225); conditions: VDR-bla HEK293T viability, CellTiter-Glo luminescence, 16 h; viability change, negative = cytotoxic: at 61 µM (top of the series) unless noted; note: nearly all actives have a fitted effect of over 50% in size; note: potency is the fitted concentration of half-maximal effect
# Outline: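 Viability counter screen run in the same wells as the beta-lactamase reporter assay: HEK 293T VDR-UAS-bla cells, 16 h compound exposure at 37C with 3 nM (final) 1-alpha,25-dihydroxyvitamin D3. CellTiter-Glo luminescence, 30 min, room temperature.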
# [17] = qHTS assay to identify small molecule agonists of the peroxisome proliferator-activated receptor delta (PPARd) signaling pathway - cell viability counter screen (AID 743211); conditions: PPARd-bla HEK293H viability, CellTiter-Glo luminescence, 17 h; activity change, negative = cytotoxicity: at 62.6 µM (top of the series) unless noted; note: % is set by controls: 0 for no effect and ±100 for the full control effect; nearly all actives have a fitted effect of over 55% in size
# Outline: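 Read-out: CellTiter-Glo luminescence, 30 min RT, measured in the same wells as the beta-lactamase reporter. Cells: GeneBLAzer PPAR delta UAS-bla HEK293H, 3000 cells/well, compound exposure 17 h at 37C.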
# [18] = qHTS assay to identify small molecule antagonists of the peroxisome proliferator-activated receptor gamma (PPARg) signaling pathway - cell viability counter screen (AID 743194); conditions: PPARg-bla HEK293H viability, CellTiter-Glo luminescence, 17 h; Potency: co-treated with 50 nM rosiglitazone unless noted; activity change, negative = cytotoxicity: at 62.6 µM (top of the series), co-treated with 50 nM rosiglitazone unless noted; note: potency is the fitted concentration of half-maximal effect; nearly all actives have a fitted effect of over 55% in size
# Outline: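 PPARg-UAS-bla HEK293H cells were plated, rested 5 h at 37 C, then treated with compounds plus rosiglitazone (50 nM final) for 17 h at 37 C; viability was then read by CellTiter-Glo luminescence after 30 min at room temperature.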
# Tags give direction and shape of the fitted curve or compound fluorescence and quenching.
# Chain of UniProt P11473 (P11473 whole entry, looked up): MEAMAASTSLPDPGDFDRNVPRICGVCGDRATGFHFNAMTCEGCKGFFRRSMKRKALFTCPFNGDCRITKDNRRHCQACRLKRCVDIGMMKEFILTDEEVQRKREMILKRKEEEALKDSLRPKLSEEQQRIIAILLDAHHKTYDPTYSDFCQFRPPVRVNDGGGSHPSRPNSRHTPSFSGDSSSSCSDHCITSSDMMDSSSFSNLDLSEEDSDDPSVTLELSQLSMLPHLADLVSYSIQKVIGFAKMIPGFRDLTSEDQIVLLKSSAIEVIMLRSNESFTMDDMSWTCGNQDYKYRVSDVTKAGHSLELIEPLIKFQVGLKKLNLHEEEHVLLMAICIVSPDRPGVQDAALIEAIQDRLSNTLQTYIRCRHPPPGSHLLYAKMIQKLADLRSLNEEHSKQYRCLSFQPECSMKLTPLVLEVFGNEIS
# Chain of UniProt P37231 (P37231 whole entry, looked up): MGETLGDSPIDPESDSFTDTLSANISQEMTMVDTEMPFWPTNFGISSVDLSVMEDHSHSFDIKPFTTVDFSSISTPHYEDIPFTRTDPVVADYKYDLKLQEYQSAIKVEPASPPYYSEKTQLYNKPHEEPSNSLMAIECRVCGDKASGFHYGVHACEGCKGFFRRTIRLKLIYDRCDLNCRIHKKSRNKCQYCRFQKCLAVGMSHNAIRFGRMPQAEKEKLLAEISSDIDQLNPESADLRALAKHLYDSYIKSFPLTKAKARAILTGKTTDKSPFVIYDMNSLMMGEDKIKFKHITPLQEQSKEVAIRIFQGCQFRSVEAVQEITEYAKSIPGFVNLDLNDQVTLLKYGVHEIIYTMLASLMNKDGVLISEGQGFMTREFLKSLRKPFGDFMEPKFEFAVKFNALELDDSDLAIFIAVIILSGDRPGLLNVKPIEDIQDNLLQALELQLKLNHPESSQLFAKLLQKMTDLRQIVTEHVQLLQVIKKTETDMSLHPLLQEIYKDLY
# Chain of UniProt Q03181 (Q03181 whole entry, looked up): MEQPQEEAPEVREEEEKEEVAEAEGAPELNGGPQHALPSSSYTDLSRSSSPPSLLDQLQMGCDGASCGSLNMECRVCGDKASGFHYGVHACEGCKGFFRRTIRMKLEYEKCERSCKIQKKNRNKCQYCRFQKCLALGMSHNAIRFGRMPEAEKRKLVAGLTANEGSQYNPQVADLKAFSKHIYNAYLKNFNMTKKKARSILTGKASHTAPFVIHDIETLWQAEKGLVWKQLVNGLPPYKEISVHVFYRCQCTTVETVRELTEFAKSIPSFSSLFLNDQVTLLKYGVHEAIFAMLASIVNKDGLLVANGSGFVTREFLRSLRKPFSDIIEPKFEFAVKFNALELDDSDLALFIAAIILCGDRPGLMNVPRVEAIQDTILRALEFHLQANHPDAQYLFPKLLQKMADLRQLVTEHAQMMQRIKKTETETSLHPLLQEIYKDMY
# Chain of UniProt Q96RI1 (Q96RI1 whole entry, looked up): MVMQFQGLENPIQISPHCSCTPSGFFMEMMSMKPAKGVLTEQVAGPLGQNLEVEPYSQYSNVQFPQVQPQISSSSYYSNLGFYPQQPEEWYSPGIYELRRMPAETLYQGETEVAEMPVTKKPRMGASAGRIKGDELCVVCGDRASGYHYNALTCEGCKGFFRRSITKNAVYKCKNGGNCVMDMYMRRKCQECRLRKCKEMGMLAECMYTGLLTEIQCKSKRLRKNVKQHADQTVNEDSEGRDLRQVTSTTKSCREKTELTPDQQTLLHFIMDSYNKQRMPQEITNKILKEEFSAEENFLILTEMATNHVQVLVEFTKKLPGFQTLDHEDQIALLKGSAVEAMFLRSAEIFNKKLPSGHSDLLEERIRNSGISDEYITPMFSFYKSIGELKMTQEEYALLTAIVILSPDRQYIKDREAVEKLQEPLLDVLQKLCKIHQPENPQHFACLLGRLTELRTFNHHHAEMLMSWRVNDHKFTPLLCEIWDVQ
structure (smiles),measurement,setting,value
O=C(NC(=O)c1c(F)cccc1F)Nc1cc(Cl)c(OC(F)(F)C(F)C(F)(F)F)cc1Cl (centres undefined),"ratio activity, negative = inhibition",[1],inconclusive: -0.482% and inconclusive: 8.65%
same,activation,[2],inconclusive: -0.908% and inconclusive: 27.4%
same,Potency,[3],"inconclusive: 0.841 µM [rising, full curve, poor fit]"
same,Potency,[4],"inconclusive: 0.188 µM [rising, full curve, poor fit]"
same,Potency,[5],"inconclusive: 5.49 µM [cytotoxic, single point]"
same,Potency,[6],"inconclusive: 49 µM [activator, partial curve, poor fit]"
same,Potency,[7],inactive
O=C(O)C1(c2ccc3c(c2)OC[C@H](Cc2ccc(-c4ccccc4)cc2)[C@H]3O)CCCC1,Potency,[1],"inconclusive: 54.9 µM [rising, single point]"
same,Potency,[2],"inconclusive: 17.2 µM [rising, partial curve]"
same,Potency,[3],"inconclusive: 68.6 µM [cytotoxic, single point]"
same,Potency,[4],"inconclusive: 54.9 µM [cytotoxic, partial curve, poor fit]"
same,Potency,[8],inconclusive: 58.2 µM
same,Potency,[9],"inconclusive: 19.5 µM [rising, partial curve, poor fit]"
same,Potency,[5],active: 43.6 µM
same,"ratio activity, negative = inhibition",[10],inconclusive: -24.9%
same,Potency,[11],"inconclusive: 54.9 µM [cytotoxic, single point]"
same,activation,[12],inconclusive: 0.345%
same,Potency,[13],inconclusive: 61.6 µM
same,Potency,[14],"inconclusive: 43.6 µM [rising, partial curve]"
same,Potency,[6],inconclusive: 54.9 µM [single point]
same,Potency,[15],active: 49 µM
same,Potency,[16],active: 49 µM
same,Potency,[7],"inconclusive: 27.5 µM [rising, single point]"
CC(=O)Nc1cc([As](=O)(O)O)ccc1O,Potency,[1],inactive
same,Potency,[2],inactive
same,Potency,[4],inactive
same,Potency,[8],"inconclusive: 33.5 µM [rising, partial curve, poor fit]"
same,Potency,[10],inactive
same,"activity change, negative = inhibition",[6],inconclusive: 2.48%
same,Potency,[7],inactive
COc1cc(C=O)cc2c1[C@H](COC(N)=O)[C@]1(OC(C)=O)ON2C[C@H]2[C@@H]1N2C(C)=O,Potency,[1],inconclusive: 3.47 µM [full curve]
same,Potency,[2],"inconclusive: 1.72 µM [falling, full curve]"
same,Potency,[3],active: 0.154 µM
same,Potency,[4],active: 2.45 µM
same,"activity change, negative = cytotoxicity",[17],inconclusive: -30.5% [cytotoxic]
same,Potency,[10],"inconclusive: 0.219 µM [rising, full curve]"
same,Potency,[11],"inconclusive: 27.5 µM [rising, partial curve, poor fit]"
same,Potency,[13],"inconclusive: 19.5 µM [rising, full curve]"
same,Potency,[6],inconclusive: 2.45 µM [full curve]
same,Potency,[15],inactive
same,Potency,[16],inactive
same,Potency,[7],"inconclusive: 24.5 µM [rising, partial curve]"
CC(C)OC(=S)S,Potency,[1],inactive
same,Potency,[2],"inconclusive: 54.5 µM [rising, partial curve, poor fit]"
same,Potency,[8],"inconclusive: 2.19 µM [activator, full curve]"
same,Potency,[5],inactive
same,"ratio activity, negative = inhibition",[10],inconclusive: -66.4%
same,Potency,[12],"inconclusive: 27.5 µM [activator, partial curve]"
same,Potency,[15],"inconclusive: 38.9 µM [cytotoxic, partial curve]"
same,Potency,[7],inconclusive: 4.9 µM
COc1ccc2c3c1O[C@H]1[C@H](O)CC[C@H]4[C@@H](C2)N(C)CC[C@@]341,Potency,[1],inactive
same,activation,[2],inconclusive: -10.2%
same,"activity change, negative = cytotoxicity",[4],inconclusive: -12.6% [cytotoxic] [at 81.1 µM]
same,Potency,[8],"inconclusive: 67.5 µM [activator, partial curve, poor fit]"
same,Potency,[7],inactive
O=C(O)C(F)(F)C(F)(F)C(F)(F)C(F)(F)C(F)(F)C(F)(F)C(F)(F)C(F)(F)C(F)(F)F,"ratio activity, negative = inhibition",[1],inconclusive: 4.04%
same,Potency,[2],active: 24.3 µM
same,Potency,[4],inactive
same,Potency,[15],"inconclusive: 21.9 µM [cytotoxic, partial curve, poor fit]"
same,Potency,[7],inactive
Nc1nc(=S)[nH][nH]1,"ratio activity, negative = inhibition",[1],inconclusive: 1.57%
same,Potency,[2],inactive
same,Potency,[8],inactive
same,Potency,[17],inactive
same,Potency,[5],"inconclusive: 11 µM [cytotoxic, single point]"
same,Potency,[10],inactive
same,Potency,[13],inactive
same,Potency,[7],inactive
CON(C)C(=O)Nc1ccc(Br)c(Cl)c1,Potency,[1],inconclusive: 61.6 µM [inhibitor]
same,Potency,[18],"inconclusive: 49 µM [cytotoxic, partial curve, poor fit]"
same,Potency,[5],"inconclusive: 1.1 µM [cytotoxic, single point]"
same,"activity change, negative = inhibition",[6],inconclusive: 2.26% [inhibitor]
same,Potency,[16],"inconclusive: 0.0155 µM [cytotoxic, full curve, poor fit]"
same,Potency,[7],inactive
